Measured values published in article PMC4336329 (PLoS ONE, 2015).
Out of some 310,000 compounds screened, about 2,200 (0.71%) showed an effect of 50% or more. The effect is printed as a negative number. The list shows a part of the results.

Target: human ether-à-go-go-related gene (hERG) potassium channel (human, UniProt Q12809)
Experiment: primary screen, population patch clamp on CHO cells stably expressing hERG

human ether-à-go-go-related gene (hERG) potassium channel, sequence (Q12809 whole entry, looked up): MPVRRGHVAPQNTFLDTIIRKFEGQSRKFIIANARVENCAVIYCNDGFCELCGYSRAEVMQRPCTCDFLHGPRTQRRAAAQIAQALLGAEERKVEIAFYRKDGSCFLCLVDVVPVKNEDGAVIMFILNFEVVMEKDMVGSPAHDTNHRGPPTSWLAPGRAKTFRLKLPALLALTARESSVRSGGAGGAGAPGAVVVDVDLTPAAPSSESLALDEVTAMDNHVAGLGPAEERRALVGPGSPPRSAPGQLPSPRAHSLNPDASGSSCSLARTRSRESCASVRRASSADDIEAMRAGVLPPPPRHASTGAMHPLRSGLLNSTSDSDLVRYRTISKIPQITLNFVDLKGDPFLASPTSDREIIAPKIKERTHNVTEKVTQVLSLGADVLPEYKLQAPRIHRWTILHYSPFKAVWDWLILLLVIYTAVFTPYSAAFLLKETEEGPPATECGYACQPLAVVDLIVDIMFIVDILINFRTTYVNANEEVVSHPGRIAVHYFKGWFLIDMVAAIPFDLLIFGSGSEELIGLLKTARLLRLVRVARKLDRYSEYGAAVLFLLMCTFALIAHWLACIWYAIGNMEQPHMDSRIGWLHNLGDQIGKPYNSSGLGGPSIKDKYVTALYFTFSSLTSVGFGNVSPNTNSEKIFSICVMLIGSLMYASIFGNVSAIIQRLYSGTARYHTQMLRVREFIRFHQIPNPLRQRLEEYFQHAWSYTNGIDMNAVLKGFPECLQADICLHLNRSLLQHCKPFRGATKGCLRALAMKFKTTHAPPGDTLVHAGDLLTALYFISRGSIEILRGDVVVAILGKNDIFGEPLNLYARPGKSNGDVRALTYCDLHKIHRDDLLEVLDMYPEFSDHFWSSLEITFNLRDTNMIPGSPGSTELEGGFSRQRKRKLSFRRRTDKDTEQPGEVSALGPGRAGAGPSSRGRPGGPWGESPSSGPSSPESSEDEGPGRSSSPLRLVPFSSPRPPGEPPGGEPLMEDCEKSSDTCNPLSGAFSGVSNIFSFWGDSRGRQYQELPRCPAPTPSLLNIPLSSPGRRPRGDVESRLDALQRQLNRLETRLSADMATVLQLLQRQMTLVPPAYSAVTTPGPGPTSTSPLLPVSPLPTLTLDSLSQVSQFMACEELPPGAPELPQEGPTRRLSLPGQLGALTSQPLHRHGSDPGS

Going from `CCN(CC(=O)NC)S(=O)(=O)c1ccc(Br)cc1` to `O=C(CC1CCCC1)Nc1cccc(Br)c1`, the “hERG current change (%, negative = inhibition) at 1uM” value rises from 12.4% to 13.9%.

Going from `CCN(CC)C(=O)CSC1=C(C#N)C(c2ccco2)C(C(=O)OCCOC)=C(C)N1` (stereo not drawn) to `CCOC(=O)C1(CCOc2ccccc2)CCN(Cc2cnc(C)[nH]2)CC1`, the “hERG current change (%, negative = inhibition) at 1uM” value falls from 16.1% to -17.3%.

Going from `Cc1nn(C(C)C(=O)N2CCOCC2)c(C)c1[N+](=O)[O-]` (stereo not drawn) to `Cc1nn(C(=O)N2CCOCC2)c(C)c1CN1C(=O)c2ccccc2C1=O`, the “hERG current change (%, negative = inhibition) at 1uM” value falls from 12% to 1.67%.

First: CN(C)CCOc1ccccc1C(C)(C)C.O=C(O)C(=O)O
Second: Cc1ccc(C(C)C)c(OCCn2ccnc2C)c1.O=C(O)C(=O)O
The “hERG current change (%, negative = inhibition) at 1uM” value of the first is higher: 8.1% for the first, 2.68% for the second.

First: O=C(NC1CCCC1)c1cc2nc(-c3ccccc3)cc(-c3ccccc3)n2n1
Second: O=C(Cc1ccccc1)Nc1ccc(NC(=O)c2ccccc2)c(Cl)c1
The “hERG current change (%, negative = inhibition) at 1uM” value of the first is lower: 3.59% for the first, 12.9% for the second.

Compared with `CNC(=O)c1sccc1-n1cccc1`, `COc1ccc(Br)c(C(=O)Nn2c(C)nc3ccccc3c2=O)c1` is lower in “hERG current change (%, negative = inhibition) at 1uM” value: 8.16% for the first, 2.6% for the second.

Going from `CN1CC=C2C(C#N)=C(N)C(C#N)(C#N)C(c3ccncc3)C2C1` (stereo not drawn) to `CN1CCc2nc(SCc3ccc(Cl)cc3)c(C#N)c(-c3cccs3)c2C1`, the “hERG current change (%, negative = inhibition) at 1uM” value falls from 7.1% to -16.5%.

First: COc1ccc(CN(C)C(=O)c2cc(S(=O)(=O)N3CCCCCC3)ccc2OC)cc1OC
Second: Cc1c(C(=O)N(C)Cc2ccccc2)oc2ccc(S(=O)(=O)N3CCCC3)cc12
The “hERG current change (%, negative = inhibition) at 1uM” value of the first is higher: 4.44% for the first, -0.449% for the second.

Compared with `Cn1cc(CN2CCN(Cc3ccccc3)CC2)c(-c2cccc(Cl)c2)n1`, `COc1ccccc1NC(=O)CN1CCN(C(=O)c2ccco2)CC1` is higher in “hERG current change (%, negative = inhibition) at 1uM” value: -4.71% for the first, -0.396% for the second.

Compared with `COc1cc(CC(C#N)(CO)c2nc3ccccc3[nH]2)ccc1OC(F)F` (stereo not drawn), `N#C/C(=C(/O)COC(=O)c1ccc(O)cc1)c1nc2ccccc2[nH]1` is higher in “hERG current change (%, negative = inhibition) at 1uM” value: 1.16% for the first, 11.9% for the second.

Compared with `COc1ccccc1C(O)P(=O)(OCC(C)C)c1ccc(N(C)C)cc1` (stereo not drawn), `COc1ccc(N(C(=O)c2cccc(OC)c2OC)C2C=CS(=O)(=O)C2)cc1` (stereo not drawn) is lower in “hERG current change (%, negative = inhibition) at 1uM” value: 10.5% for the first, 8.3% for the second.

First: CCCc1nnc(SCC(=O)Nc2ccc(OC)cc2)o1
Second: COc1ccc(NC(=O)CSc2nnc(-c3cccnc3)o2)c(OC)c1
The “hERG current change (%, negative = inhibition) at 1uM” value of the first is higher: 19.3% for the first, 3.45% for the second.

Compared with `Cc1c(NC(=O)c2ccc3ncccc3c2)c(=O)n(-c2ccccc2)n1C`, `Cc1c(N=C(N)/N=C(\N)Nc2ccc(Br)cc2)c(=O)n(-c2ccccc2)n1C` is lower in “hERG current change (%, negative = inhibition) at 1uM” value: 21.5% for the first, 14.8% for the second.

Compared with `CCC1CCCCN1CCCNC(=O)Cn1nc(C)n2nc(-c3ccccc3)cc2c1=O` (stereo not drawn), `Cn1cnnc1SCC(=O)NC(=O)NCc1ccccc1` is higher in “hERG current change (%, negative = inhibition) at 1uM” value: -8.24% for the first, 7.59% for the second.

Going from `Cc1cccc(NC(=O)C2=C(O)c3ccccc3N(C)S2(=O)=O)c1` to `COc1ccccc1CNC(=O)CN1C(=O)c2ccccc2S1(=O)=O`, the “hERG current change (%, negative = inhibition) at 1uM” value rises from 15.3% to 15.9%.

Going from `COc1ccccc1C1NC(=O)CS1` (stereo not drawn) to `COc1ccc2ccccc2c1C(=O)/C=C\c1ccoc1`, the “hERG current change (%, negative = inhibition) at 1uM” value rises from 0.249% to 7.74%.

Compared with `O=C(CCSc1nnc(-c2ccncc2)o1)Nc1ccccc1`, `CN(CC(=O)Nc1ccc(Cl)cc1)CC(=O)Nc1cccc2ccccc12` is higher in “hERG current change (%, negative = inhibition) at 1uM” value: 5.86% for the first, 6.76% for the second.

First: O=C(Nc1ccc(F)c(Cl)c1)C1CCCC1
Second: COc1ccc(C(=O)NNC(=O)CNC(=O)C2CCCCC2)cc1
The “hERG current change (%, negative = inhibition) at 1uM” value of the first is higher: 22.5% for the first, 21.1% for the second.

Compared with `Fc1ccc(-c2cc(C(F)(F)F)nc(N3CCCCC3)n2)cc1`, `O=C(COc1ccccc1[N+](=O)[O-])Nc1ccccc1N1CCCC1` is lower in “hERG current change (%, negative = inhibition) at 1uM” value: 16.5% for the first, 2.4% for the second.

Compared with `CCn1c(SCC(=O)Nc2ccc3[nH]c(=O)[nH]c3c2)nc2ccccc21`, `CCn1c(SCC(=O)N=Nc2c(O)[nH]c3ccccc23)nc2ccccc21` is lower in “hERG current change (%, negative = inhibition) at 1uM” value: 13.9% for the first, 9.85% for the second.

Compared with `CC1C/C(=N\NC(=S)NCc2ccccc2)CC(C)(C)C1` (stereo not drawn), `Cc1cccc(NC(=S)NCc2ccco2)c1C` is higher in “hERG current change (%, negative = inhibition) at 1uM” value: -6.95% for the first, 7.94% for the second.

Compared with `Cl.OCCCCNCc1ccc(OCc2ccccc2Cl)cc1`, `COc1ccc(/C(C#N)=C/c2ccccn2)cc1` is higher in “hERG current change (%, negative = inhibition) at 1uM” value: -2.14% for the first, 11.1% for the second.

First: CC(=O)c1c(C)n(C2CCCCC2)c2ccc(O)cc12
Second: COc1ccc(C)cc1NC1=C(Cl)C(=O)N(C2CCCCC2)C1=O
The “hERG current change (%, negative = inhibition) at 1uM” value of the first is higher: 5.3% for the first, -4.7% for the second.

Compared with `CC1CC(C)CN(C(=O)c2ccc3ncsc3c2)C1` (stereo not drawn), `CCOc1ccc(NS(=O)(=O)c2cc(C(=O)N3CCC3)ccc2Cl)cc1` is lower in “hERG current change (%, negative = inhibition) at 1uM” value: 23% for the first, 7.4% for the second.

Going from `CC(C)CC(OC(=O)c1nsc(Cl)c1Cl)C(=O)NCc1cccs1` (stereo not drawn) to `COC(=O)Nc1sc2c(c1C(=O)NCc1ccco1)CCC2`, the “hERG current change (%, negative = inhibition) at 1uM” value falls from 1.18% to -9.93%.

Compared with `COc1ccc(-n2c(O)cnc2Nc2nc(C)cc(C)n2)cc1OC`, `COc1cnn(-c2cc(Oc3ccc(C)cc3)ncn2)c(=O)c1Cl` is lower in “hERG current change (%, negative = inhibition) at 1uM” value: 10.2% for the first, 8.54% for the second.

First: CN(Cc1ccco1)S(=O)(=O)c1nnc(NC(=O)c2ccccc2Cl)s1
Second: Cc1c(Cl)cccc1NC(=S)N(Cc1ccco1)C(C)c1ccccn1 (stereo not drawn)
The “hERG current change (%, negative = inhibition) at 1uM” value of the first is higher: 19.9% for the first, 5.44% for the second.

Compared with `COc1ccc(C2=CC(=O)C[C@H](c3ccc(F)cc3)C2)c(OC)c1`, `COc1ccc(C2/C=C\CN(C(=O)NC34CC5CC(CC(C5)C3)C4)CC(=O)N2Cc2ccc(F)cc2)cc1` (stereo not drawn) is lower in “hERG current change (%, negative = inhibition) at 1uM” value: 7.77% for the first, 6.28% for the second.

Going from `Cc1ccccc1OCC(=O)NCC(C)(C)N1CCOCC1` to `CCc1sc(C(=O)Nc2cc(S(=O)(=O)N3CCOCC3)ccc2OC)cc1C`, the “hERG current change (%, negative = inhibition) at 1uM” value falls from 10.3% to 8.49%.

Compared with `CCN(CC)CCCNC(=O)C1CCC(CNS(=O)(=O)c2c(C)cc(C)cc2C)CC1` (stereo not drawn), `CC1CCC(NC(=O)c2ccc(NS(=O)(=O)c3ccc4[nH]c(=O)[nH]c4c3)cc2)CC1` (stereo not drawn) is lower in “hERG current change (%, negative = inhibition) at 1uM” value: 12.6% for the first, 9.16% for the second.

First: COC(=O)c1ccc(S(=O)(=O)N2CCC(c3nc4ccccc4o3)CC2)cc1
Second: COc1ccc(NC(=O)C2CCCN(S(=O)(=O)c3ccc(-n4cnnn4)cc3)C2)cc1 (stereo not drawn)
The “hERG current change (%, negative = inhibition) at 1uM” value of the first is lower: 10.9% for the first, 15.5% for the second.

Going from `O=C(Nc1ccccc1Br)c1ccc2nccnc2c1` to `COc1ccc(C(C)=O)cc1CSc1nnc(Nc2ccccc2C)s1`, the “hERG current change (%, negative = inhibition) at 1uM” value falls from 8.66% to 2.94%.

Going from `C/C=C/C(=O)Nc1cccc(C2=NOC3(C2)C[C@@H](C(N)=O)N(C(=O)c2cc([N+](=O)[O-])cc([N+](=O)[O-])c2C)C3)c1` (stereo partly drawn) to `COc1cccc(NC(=O)Cc2nnc(SCC(=O)NC3=NCCS3)n2C)c1`, the “hERG current change (%, negative = inhibition) at 1uM” value rises from 5.35% to 18.2%.

Going from `O=[N+]([O-])c1ccc(N(CC(O)CN2CCCCC2)S(=O)(=O)c2ccccc2)cc1` (stereo not drawn) to `COc1ccc(Cc2nc3ccc(S(=O)(=O)N4CCOCC4)cc3[nH]2)cc1`, the “hERG current change (%, negative = inhibition) at 1uM” value rises from -79.5% to 11.8%.

Going from `CCCCCc1cc(=O)oc2c(C(CCN3CCCC3)c3cc(OC)c(OC)c(OC)c3)c(OC)cc(OC)c12` (stereo not drawn) to `COc1ccc(OC)c2c(=O)cc(C(=O)O)[nH]c12`, the “hERG current change (%, negative = inhibition) at 1uM” value rises from -29.8% to 10.4%.

Going from `COC(=O)c1cccc(Cn2c(Cl)c(/C=N/NC(=O)c3ccccc3Cl)sc2=O)c1` to `CCOC(=O)c1c(C)nc2ccc(Cl)cc2c1-c1ccccc1`, the “hERG current change (%, negative = inhibition) at 1uM” value falls from 8.95% to 8.88%.

Compared with `S=c1nc(-c2ccco2)[nH][nH]1`, `Cc1nc2nc(NC(=O)c3ccco3)nn2c(C)c1Cl` is lower in “hERG current change (%, negative = inhibition) at 1uM” value: 10.7% for the first, 7.57% for the second.

First: Clc1ccc(-c2nc(-c3cc4cc(Cl)ccc4o3)cs2)cc1
Second: CNc1oc(-c2cccc3ccccc23)nc1C#N
The “hERG current change (%, negative = inhibition) at 1uM” value of the first is lower: 10.4% for the first, 14.6% for the second.

Compared with `CCn1cc(C(=O)NCCC(=O)OC)c(=O)c2cc3c(cc21)OCO3`, `COC(=O)c1cc2c(cc1NC(=O)CSCCc1ccccn1)OCO2` is higher in “hERG current change (%, negative = inhibition) at 1uM” value: 7.57% for the first, 14.4% for the second.

Going from `CC1C(=O)N2CCCc3cc(NC(=O)CC(C)(C)C)cc1c32` (stereo not drawn) to `CC1CCN(CC(=O)Nc2cc(C(F)(F)F)ccc2Cl)CC1`, the “hERG current change (%, negative = inhibition) at 1uM” value rises from 3.27% to 14.6%.

First: CCCOc1ccc(/C=c2\sc3ncnn3c2=O)cc1
Second: CCc1cc2c(=O)[nH]c(-c3ccccn3)nc2s1
The “hERG current change (%, negative = inhibition) at 1uM” value of the first is higher: 14% for the first, 3.97% for the second.

Compared with `Cn1cncc1C#Cc1ccc2cc(CCO)oc(=O)c2c1`, `Cc1ccc(C)c(Cn2c(=O)n(CCC(=O)NCc3ccco3)c(=O)c3sccc32)c1` is lower in “hERG current change (%, negative = inhibition) at 1uM” value: 6.29% for the first, 5.9% for the second.

Going from `CC(Sc1nnnn1C)C(=O)Nc1ccc(N2CCOCC2)cc1` (stereo not drawn) to `CN1CCN(C(=O)c2ccc(C3SCC(=O)N3Cc3ccco3)cc2)CC1` (stereo not drawn), the “hERG current change (%, negative = inhibition) at 1uM” value rises from -3.54% to 7.77%.

Going from `COc1cccc(NC(=O)CN(C)C(=O)CSCc2nc3scc(-c4cccs4)c3c(=O)[nH]2)c1` to `Cc1ccc(C(=O)CCC(=O)Nc2ncccc2C)cc1`, the “hERG current change (%, negative = inhibition) at 1uM” value rises from 5.99% to 14.2%.

Compared with `CNc1nc2sc3c(c2c(=O)n1C)CC(C)(C)SC3`, `Cn1c(/C=C/c2ccccc2)nc2ccccc21` is higher in “hERG current change (%, negative = inhibition) at 1uM” value: -5.36% for the first, 6.75% for the second.
